Measured values taken from a collection of fitness landscapes (doi:10.1016/j.celrep.2020.107928).
Over roughly 81,000 sequences, “one-hybrid fitness for binding parS DNA” has its median near -0.17; the highest 2% begin near 0.51. Some of the results follow.

B1: Caulobacter ParB omega fusion; a variant is named by its letters at X, in order, B8GW30 (parent)
chain: MESVVVGEPGMSEGRRGLGRGLSALLGEVDAAPAQAPGEQLGGSREAPIEILQRNPDQPRRTFREEDLEDLSNSIREKGVLQPILVRPSPDTAGEYQIVAGERAWRAAQRAGLKTVPIMVRELDDLAVLEIGIIENVQRADLNVLEEALSYKVLMEKFERTQENIAQTIGKSXSHVANXMRLLXLPDEVQSYLVSGELTAXHARAIAAAADPVALAKQIIEGGLSVRETEALARKAPNLSAGKSKGGRPPRVKDTDTQALESDLSSVLGLDVSIDHRGSTGTLTITYATLEQLDDLCNRLTRGI

Variants of: B1
Experiment: one-hybrid fitness for binding parS DNA (scaled: cognate 1, non-cognate 0); higher = stronger binding
Conditions: with parS DNA site
Method in brief: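 Values were rescaled so that cognate is 1 and non-cognate is 0. Each is a fitness, the log change in a variant's read ratio to wild type from Illumina reads of plasmids before and after selection, with three replicate libraries pooled and variants under 10 reads dropped. Selection of the Caulobacter ParB libraries, four specificity codons randomised, used E. coli USO with a HIS3 reporter, site 19 bp from the promoter, on M9-minus-histidine with 0.1 mM IPTG and 5 mM 3-AT for 48 hours at 37°C.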

| Variant | one-hybrid fitness for binding parS DNA |
| --- | --- |
| FVKH | ≤ 0.2 |
| LNAW | ≤ 0.2 |
| RYYK | ≤ 0.2 |
| VWDM | ≤ 0.2 |
| MIIC | ≤ 0.2 |
| VAAW | ≤ 0.2 |
| CVCG | ≤ 0.2 |
| QISH | ≤ 0.2 |
| AVMH | ≤ 0.2 |
| MCMN | ≤ 0.2 |
| PKHI | ≤ 0.2 |
| IPRY | ≤ 0.2 |
| VDRS | ≤ 0.2 |
| AAYA | ≤ 0.2 |
| HNYQ | ≤ 0.2 |
| HDND | ≤ 0.2 |
| RDWG | ≤ 0.2 |
| FLDY | ≤ 0.2 |
| FLIG | ≤ 0.2 |
| RAHW | 0.258 |
| IMNL | ≤ 0.2 |
| AKPT | ≤ 0.2 |
| CNVS | ≤ 0.2 |
| QMRS | ≤ 0.2 |

| Variant | one-hybrid fitness for binding parS DNA |
| --- | --- |
| SHVF | ≤ 0.2 |
| AHSV | ≤ 0.2 |
| YSNK | ≤ 0.2 |
| CVDN | ≤ 0.2 |
| MYLR | ≤ 0.2 |
| CPPW | ≤ 0.2 |
| NMHI | ≤ 0.2 |
| RWMY | 0.246 |
| RMTE | ≤ 0.2 |
| EYYV | ≤ 0.2 |
| PLFG | ≤ 0.2 |
| QVDA | ≤ 0.2 |
| DTKA | ≤ 0.2 |
| ITAT | ≤ 0.2 |
| ATTN | ≤ 0.2 |
| RFSP | ≤ 0.2 |
| GYLD | ≤ 0.2 |
| NLQI | ≤ 0.2 |
| ISQE | ≤ 0.2 |
| TVRM | ≤ 0.2 |
| MDME | ≤ 0.2 |
| PRCH | ≤ 0.2 |
| PVKN | ≤ 0.2 |
| RMCI | ≤ 0.2 |

| Variant | one-hybrid fitness for binding parS DNA |
| --- | --- |
| RSIN | 0.269 |
| ANHD | ≤ 0.2 |
| DMGM | ≤ 0.2 |
| VKRI | ≤ 0.2 |
| HTYG | ≤ 0.2 |
| LRWN | ≤ 0.2 |
| QPHV | ≤ 0.2 |
| CVNR | ≤ 0.2 |
| RNYV | ≤ 0.2 |
| FPIE | ≤ 0.2 |
| DQPH | ≤ 0.2 |
| WFVC | ≤ 0.2 |
| DYQS | ≤ 0.2 |
| RLRR | ≤ 0.2 |
| NYTS | ≤ 0.2 |
| YRAG | 0.212 |
| YAYR | ≤ 0.2 |
| FFNG | ≤ 0.2 |
| ACVG | ≤ 0.2 |
| PAKL | ≤ 0.2 |
| QRLL | ≤ 0.2 |
| DVTE | ≤ 0.2 |
| ALVR | ≤ 0.2 |
| RGGI | ≤ 0.2 |

| Variant | one-hybrid fitness for binding parS DNA |
| --- | --- |
| QTGK | ≤ 0.2 |
| KRLT | ≤ 0.2 |
| CRRK | ≤ 0.2 |
| AWGC | ≤ 0.2 |
| DSRR | ≤ 0.2 |
| TPDL | ≤ 0.2 |
| PAHD | ≤ 0.2 |
| ALFN | ≤ 0.2 |
| QVIH | ≤ 0.2 |
| TNGD | ≤ 0.2 |
| NFRN | ≤ 0.2 |
| GSDT | ≤ 0.2 |
| WAHD | ≤ 0.2 |
| SQTY | ≤ 0.2 |
| QPMT | ≤ 0.2 |
| SLET | ≤ 0.2 |
| CHSC | ≤ 0.2 |
| VKKR | ≤ 0.2 |
| QEDR | ≤ 0.2 |
| QERW | ≤ 0.2 |
| NPQP | ≤ 0.2 |
| KYRG | ≤ 0.2 |
| AVTV | ≤ 0.2 |
| KAVT | ≤ 0.2 |

| Variant | one-hybrid fitness for binding parS DNA |
| --- | --- |
| DYWT | ≤ 0.2 |
| GMPD | ≤ 0.2 |
| SVNI | ≤ 0.2 |
| HVEY | ≤ 0.2 |
| QKYF | ≤ 0.2 |
| CHIA | ≤ 0.2 |
| PHWV | ≤ 0.2 |
| MRLC | ≤ 0.2 |
| FTSW | ≤ 0.2 |
| TQAT | ≤ 0.2 |
| QHLT | ≤ 0.2 |
| ISFE | ≤ 0.2 |
| GVQL | ≤ 0.2 |
| HSLS | ≤ 0.2 |
| NFST | ≤ 0.2 |
| ILRS | ≤ 0.2 |
| EASD | ≤ 0.2 |
| CDAE | ≤ 0.2 |
| KRSE | ≤ 0.2 |
| KQYR | ≤ 0.2 |
| DVET | ≤ 0.2 |
| SPCE | ≤ 0.2 |
| QNLR | ≤ 0.2 |
| KTDD | ≤ 0.2 |

| Variant | one-hybrid fitness for binding parS DNA |
| --- | --- |
| SPND | ≤ 0.2 |
| TFNR | ≤ 0.2 |
| ELKS | ≤ 0.2 |
| QVNA | ≤ 0.2 |
| TVWY | ≤ 0.2 |
| SNCR | ≤ 0.2 |
| TPIV | ≤ 0.2 |
| NQVG | ≤ 0.2 |
| MVSW | ≤ 0.2 |
| AWPL | ≤ 0.2 |
| DTRR | ≤ 0.2 |
| PCPI | ≤ 0.2 |
| LARI | ≤ 0.2 |
| PIGG | ≤ 0.2 |
| RMKR | ≤ 0.2 |
| QDRG | ≤ 0.2 |
| KSSV | ≤ 0.2 |
| CPVR | ≤ 0.2 |
| DAES | ≤ 0.2 |
| QTWM | ≤ 0.2 |
| MTYC | ≤ 0.2 |
| QMWR | ≤ 0.2 |
| SARD | ≤ 0.2 |
| SLWT | ≤ 0.2 |

| Variant | one-hybrid fitness for binding parS DNA |
| --- | --- |
| DRQT | ≤ 0.2 |
| QCSR | ≤ 0.2 |
| KLIG | ≤ 0.2 |
| RVSG | 0.999 |
| PRYI | ≤ 0.2 |
| QEKL | ≤ 0.2 |
| ACPC | ≤ 0.2 |
| HKLC | ≤ 0.2 |
| HTIP | ≤ 0.2 |
| LSKY | ≤ 0.2 |
| PPLV | ≤ 0.2 |
| LNPN | ≤ 0.2 |
| ADHF | ≤ 0.2 |
| RFKV | ≤ 0.2 |
| QTIE | ≤ 0.2 |
| AGSM | ≤ 0.2 |
| YGCR | ≤ 0.2 |
| QFYL | ≤ 0.2 |
| PSPV | ≤ 0.2 |
| SRLS | ≤ 0.2 |
| QSIR | ≤ 0.2 |
| AAHE | ≤ 0.2 |
| CLFS | ≤ 0.2 |
| KQNG | ≤ 0.2 |

| Variant | one-hybrid fitness for binding parS DNA |
| --- | --- |
| KHNA | ≤ 0.2 |
| AGNT | ≤ 0.2 |
| WWAC | ≤ 0.2 |
| DNMR | ≤ 0.2 |
| GTTP | ≤ 0.2 |
| NQMT | ≤ 0.2 |
| SDLQ | ≤ 0.2 |
| TQQR | ≤ 0.2 |
| VTVG | ≤ 0.2 |
| CRCR | ≤ 0.2 |
| ETWN | ≤ 0.2 |
| EIHV | ≤ 0.2 |
| SATQ | ≤ 0.2 |
| RRWH | ≤ 0.2 |
| RQWL | ≤ 0.2 |
| LQQG | ≤ 0.2 |
| PYNN | ≤ 0.2 |
| TMCR | ≤ 0.2 |
| LWKA | ≤ 0.2 |
| DMTE | ≤ 0.2 |
| HDHS | ≤ 0.2 |
| RSYP | ≤ 0.2 |
| REPR | ≤ 0.2 |
| EPTV | ≤ 0.2 |

| Variant | one-hybrid fitness for binding parS DNA |
| --- | --- |
| QTPI | ≤ 0.2 |
| DNNG | ≤ 0.2 |
| RNIV | ≤ 0.2 |
| YQHC | ≤ 0.2 |
| GFTM | ≤ 0.2 |
| YLAP | ≤ 0.2 |
| VRIC | ≤ 0.2 |
| TDIK | ≤ 0.2 |
| TYWG | ≤ 0.2 |
| HVGK | ≤ 0.2 |
| QWNR | ≤ 0.2 |
| GLPC | ≤ 0.2 |
| LRDF | ≤ 0.2 |
| KPMG | ≤ 0.2 |
| ERDR | ≤ 0.2 |
| WSHG | ≤ 0.2 |
| CTRE | ≤ 0.2 |
| RSDH | ≤ 0.2 |
| DAEY | ≤ 0.2 |
| HPGM | ≤ 0.2 |
| GCVR | ≤ 0.2 |
| QYPM | ≤ 0.2 |
| RKQL | ≤ 0.2 |
| YQTV | ≤ 0.2 |

| Variant | one-hybrid fitness for binding parS DNA |
| --- | --- |
| HTSV | ≤ 0.2 |
| IYGL | ≤ 0.2 |
| CATD | ≤ 0.2 |
| GDVW | ≤ 0.2 |
| GDRR | ≤ 0.2 |
| SHCS | ≤ 0.2 |
| KVHC | ≤ 0.2 |
| RLCS | 1.03 |
| HHNR | ≤ 0.2 |
| GGYR | ≤ 0.2 |
| KKRE | ≤ 0.2 |
| GFHR | ≤ 0.2 |
| QKLY | ≤ 0.2 |
| LDPL | ≤ 0.2 |
| QLNI | ≤ 0.2 |
| RHCM | ≤ 0.2 |
| HPYS | ≤ 0.2 |
| YWNT | ≤ 0.2 |
| ILFC | ≤ 0.2 |
| SAGY | ≤ 0.2 |
| MPDC | ≤ 0.2 |
| HIRE | ≤ 0.2 |
| TFQF | ≤ 0.2 |
| VKVG | ≤ 0.2 |

| Variant | one-hybrid fitness for binding parS DNA |
| --- | --- |
| SRWC | ≤ 0.2 |
| WKFI | 0.205 |
| KRFI | ≤ 0.2 |
| KKIR | ≤ 0.2 |
| TLFE | ≤ 0.2 |
| QEWC | ≤ 0.2 |
| KYGR | ≤ 0.2 |
| SLGA | ≤ 0.2 |
| LVNS | ≤ 0.2 |
| LHET | ≤ 0.2 |
| LGRI | ≤ 0.2 |
| SMMW | ≤ 0.2 |
| RKIE | ≤ 0.2 |
| MEPV | ≤ 0.2 |
| VYMG | ≤ 0.2 |
| RYVK | ≤ 0.2 |
| GSKQ | ≤ 0.2 |
| FDKG | ≤ 0.2 |
| DSAY | ≤ 0.2 |
| CSIR | ≤ 0.2 |
| GRQQ | ≤ 0.2 |
| MVLQ | ≤ 0.2 |
| TCAK | ≤ 0.2 |
| SGVR | ≤ 0.2 |

| Variant | one-hybrid fitness for binding parS DNA |
| --- | --- |
| LMRC | ≤ 0.2 |
| LQIC | ≤ 0.2 |
| YRQG | ≤ 0.2 |
| DNLG | ≤ 0.2 |
| SFSQ | ≤ 0.2 |
| PVDF | ≤ 0.2 |
| MMRT | ≤ 0.2 |
| NSNY | ≤ 0.2 |
| VMHT | ≤ 0.2 |
| PTRR | ≤ 0.2 |
| WMSW | ≤ 0.2 |
| GACS | ≤ 0.2 |
| CHGT | ≤ 0.2 |
| ERRY | ≤ 0.2 |
| GRLF | ≤ 0.2 |
| GGQG | ≤ 0.2 |
| FLQV | ≤ 0.2 |
| VRHF | ≤ 0.2 |
| RAYV | ≤ 0.2 |
| RRRE | ≤ 0.2 |
| NEES | ≤ 0.2 |
| NEHS | ≤ 0.2 |
| AKNE | ≤ 0.2 |
| QIII | ≤ 0.2 |

| Variant | one-hybrid fitness for binding parS DNA |
| --- | --- |
| RCKV | ≤ 0.2 |
| SWLT | ≤ 0.2 |
| KSKV | ≤ 0.2 |
| NTHI | ≤ 0.2 |
| ESVF | ≤ 0.2 |
| VPKR | ≤ 0.2 |
| EKCS | ≤ 0.2 |
| FVWR | ≤ 0.2 |
| FPAS | ≤ 0.2 |
| HSLQ | ≤ 0.2 |
| QPSG | ≤ 0.2 |
| TNSC | ≤ 0.2 |
| NAST | ≤ 0.2 |
| ESLL | ≤ 0.2 |
| HRCV | ≤ 0.2 |
| PLRY | ≤ 0.2 |
| CKWG | ≤ 0.2 |
| QYCA | ≤ 0.2 |
